This is one part of the list. Sequences were assembled here from the parent chain. Values near 0.05 are background.
B1: TEV protease; numbered along this chain (parent)
chain: MGESLFKGPRDYNPISSSICHLTNESDGHTTSLYGIGFGPFIITNKHLFRRNNGTLVVQSLHGVFKVKDTTTLQQHLVDGRDMIIIRMPKDFPPFPQKLKFREPQREERICLVTTNFQTKSMSSMVSDTSCTFPSGDGIFWKHWIQTKDGQCGSPLVSTRDGFIVGIHSASNFTNTNNYFTSVPKNFMELLTNQEAQQWVSGWRLNADSVLWGGHKVFMVKPEEPFQPVKEATQL

Variants of: B1
Assay: raw area under fraction-flipped curve 0-4 h after induction (AUC4h, not background-subtracted), DNA-recorder readout of cleavage of the substrate (dimensionless); higher = more cleavage of the substrate by the protease variant
Conditions: temperature: 34 °C; time window: 0-4 h after rhamnose induction
Description: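 In vivo DNA recorder in E. coli TOP10(DE3) ΔrhaA at 34 °C. Each TEVp single-site mutant (parent TEVp 0) is paired with a single-site variant of the 7-mer TEVs (canonical ENLYFQ|S). The substrate sits between flexible linkers in a Bxb1-sfGFP-TEVs-SsrA fusion, so cleavage stabilises Bxb1 and speeds flipping of a recombination array, read by NGS. The value is the raw area under the fraction-flipped curve over 0-4 h after rhamnose induction (AUC4h), with ≥20 reads per time point. It is not background-subtracted; inactive controls average about 0.047.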
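Also: Bxb1 expression induced with 0.2% (w/v) L-rhamnose at OD600 near 0.5, cultures sampled hourly, flipped fraction per protease–substrate barcode pair counted by paired-end Illumina sequencing.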

Variant	area with substrate ENLYAQS	area with substrate ENLYGQS	area with substrate ENLYHQS	area with substrate ENLYKQS	area with substrate ENLYNQS	area with substrate ENLYQQS	area with substrate ENLYVQS	area with substrate ENLYWQS	area with substrate ENLYYQS	area with substrate ENLYCQS	area with substrate ENLYDQS	area with substrate ENLYEQS	area with substrate ENLYIQS	area with substrate ENLYMQS	area with substrate ENLYPQS	area with substrate ENLYSQS	area with substrate ENLYRQS	area with substrate ENLYTQS	area with substrate ENLYLQS
I145L	0.0706	0.0617	0.0707	0.052	0.0598	0.0667	0.0906	0.0894	0.0514	–	–	–	–	–	–	–	–	–	–
I145M	0.0571	0.0615	0.0604	0.0619	0.0622	0.0624	0.058	0.0475	0.0573	0.158	0.0541	0.0537	0.114	0.0714	0.0597	0.0471	–	–	–
G162K	0.0699	–	0.07	–	0.0601	–	–	–	0.0574	0.0826	–	0.0732	–	0.0909	–	–	–	–	–
R106M	0.0551	0.0685	0.0837	–	0.0652	0.0601	0.135	0.0969	0.103	0.099	–	0.0758	0.186	0.0954	0.064	0.0966	0.0562	–	–
R106Y	0.0709	0.0544	0.067	–	0.068	–	0.105	0.0934	0.0889	0.0771	0.0616	–	0.131	0.0773	–	–	–	0.0781	–
I167C	0.0589	0.0552	0.0632	0.0562	–	–	0.111	0.0534	0.0624	–	–	0.0633	–	–	0.0644	0.0805	0.0736	–	0.0545
F133I	0.083	0.0676	0.073	0.0728	0.0731	–	0.101	–	0.0724	0.0798	0.0535	0.0663	–	0.0917	0.0819	0.068	0.0617	–	–
F133H	0.0943	0.0683	0.0783	0.0041	0.0884	–	0.133	0.0813	0.0613	–	–	0.0716	0.13	0.0797	0.0681	0.0843	0.0685	0.0633	–
K148V	0.0732	0.0622	0.0832	0.0652	0.0842	–	0.127	–	–	–	0.0649	0.0693	0.0964	0.0866	0.073	–	–	–	0.0726
F173N	0.0751	0.0615	0.0698	0.0617	–	0.062	–	0.0542	–	0.092	–	0.0578	–	–	0.0483	–	–	–	–
I110Y	0.0512	–	–	–	0.0642	–	–	–	–	–	–	0.0417	–	0.0415	–	–	–	–	–
M125P	0.06	0.0692	0.0899	–	0.0665	0.099	–	0.0795	–	–	–	0.077	0.137	–	0.0867	0.0714	0.0558	–	–
M125Q	0.0819	–	0.0686	0.084	0.0751	0.0607	0.101	0.0773	0.0718	0.0838	0.0598	0.0658	–	–	0.0632	0.0765	0.0281	0.0714	0.0899
M125C	0.0731	–	0.0646	–	0.0665	0.0591	0.11	0.0674	0.0648	–	0.0662	0.0643	0.132	0.097	0.0669	0.0704	0.0652	–	0.0629
M125H	0.0479	0.0595	0.0476	0.0578	0.0513	0.058	0.0953	–	0.0624	0.0711	0.0588	0.0487	0.138	0.0744	0.0634	0.0824	0.0642	0.0913	–
K100C	0.0623	0.0547	0.0751	0.0671	0.0668	0.0489	0.145	0.0963	0.0816	–	0.0656	0.0609	0.144	0.102	0.0829	0.0682	0.0559	–	–
F95C	0.0645	0.0707	–	0.0404	–	–	–	–	0.0577	–	0.0552	–	0.0923	–	–	0.0627	0.068	–	–
F95K	0.0451	0.044	0.0656	–	0.0538	0.0494	–	–	–	–	–	–	0.0697	–	–	0.0465	–	0.0627	–
F92I	0.0669	0.0676	0.0627	–	0.0778	0.0665	0.12	0.0746	0.0633	–	0.0613	–	0.13	0.0793	0.072	–	–	0.0646	–
V165W	0.041	–	–	0.0552	0.0473	0.0578	–	0.0477	0.0489	–	0.0416	0.0663	0.0385	0.0257	0.0287	0.0754	0.044	0.0476	0.102
V113R	0.0534	0.0726	0.0652	0.0673	0.0644	–	0.0825	–	0.0614	0.0633	0.0553	–	–	0.067	0.0477	0.0842	0.043	–	–
V113F	0.0838	–	0.0889	–	0.0578	0.0805	–	–	–	–	–	0.0697	–	–	–	–	–	0.0634	0.059
I139C	0.0636	–	0.0786	–	0.0537	–	–	0.0992	–	–	0.0714	0.0634	0.0865	–	0.0616	–	0.0583	–	–
Y179C	0.0457	0.0636	0.0617	0.048	–	0.0563	0.0533	0.0599	–	0.048	–	0.0554	0.0451	–	0.0568	0.0487	0.0524	–	–
Y179F	0.0702	–	0.0712	–	0.0585	0.0642	–	–	0.0477	–	–	0.0566	–	–	0.066	0.0724	0.0637	–	–
S158F	0.0497	–	–	0.0613	0.0517	–	0.0048	0.0584	–	–	0.0536	0.0568	–	0.052	–	–	–	–	–
S135W	0.0507	0.0658	0.0682	0.0115	0.0556	0.0471	0.0619	–	0.0917	–	–	0.0644	0.0591	0.0466	0.0626	0.0738	0.0581	0.0456	–
E107P	0.0629	0.01	–	0.0627	–	0.101	0.107	–	0.0595	0.104	–	–	–	0.0731	–	0.0699	–	0.0502	–
E107I	0.0786	–	–	0.0615	0.078	0.0588	0.12	0.0628	–	–	0.0569	0.0685	0.114	–	–	0.0755	0.0757	–	0.0806
